{"source": "paper PMC4336329", "about": "(PLoS ONE, 2015)", "note": "About 14,000 (4.5%) of roughly 310,000 compounds showed an effect of 50% or more. Effects have a minus sign here. This is one part of the list.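 Note: peak tail current of the secondary pulse compared with the same well before compound.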", "data": [{"molecular_target": "human ether-à-go-go-related gene (hERG) potassium channel (human, UniProt Q12809)", "sequence (Q12809 whole entry, looked up)": "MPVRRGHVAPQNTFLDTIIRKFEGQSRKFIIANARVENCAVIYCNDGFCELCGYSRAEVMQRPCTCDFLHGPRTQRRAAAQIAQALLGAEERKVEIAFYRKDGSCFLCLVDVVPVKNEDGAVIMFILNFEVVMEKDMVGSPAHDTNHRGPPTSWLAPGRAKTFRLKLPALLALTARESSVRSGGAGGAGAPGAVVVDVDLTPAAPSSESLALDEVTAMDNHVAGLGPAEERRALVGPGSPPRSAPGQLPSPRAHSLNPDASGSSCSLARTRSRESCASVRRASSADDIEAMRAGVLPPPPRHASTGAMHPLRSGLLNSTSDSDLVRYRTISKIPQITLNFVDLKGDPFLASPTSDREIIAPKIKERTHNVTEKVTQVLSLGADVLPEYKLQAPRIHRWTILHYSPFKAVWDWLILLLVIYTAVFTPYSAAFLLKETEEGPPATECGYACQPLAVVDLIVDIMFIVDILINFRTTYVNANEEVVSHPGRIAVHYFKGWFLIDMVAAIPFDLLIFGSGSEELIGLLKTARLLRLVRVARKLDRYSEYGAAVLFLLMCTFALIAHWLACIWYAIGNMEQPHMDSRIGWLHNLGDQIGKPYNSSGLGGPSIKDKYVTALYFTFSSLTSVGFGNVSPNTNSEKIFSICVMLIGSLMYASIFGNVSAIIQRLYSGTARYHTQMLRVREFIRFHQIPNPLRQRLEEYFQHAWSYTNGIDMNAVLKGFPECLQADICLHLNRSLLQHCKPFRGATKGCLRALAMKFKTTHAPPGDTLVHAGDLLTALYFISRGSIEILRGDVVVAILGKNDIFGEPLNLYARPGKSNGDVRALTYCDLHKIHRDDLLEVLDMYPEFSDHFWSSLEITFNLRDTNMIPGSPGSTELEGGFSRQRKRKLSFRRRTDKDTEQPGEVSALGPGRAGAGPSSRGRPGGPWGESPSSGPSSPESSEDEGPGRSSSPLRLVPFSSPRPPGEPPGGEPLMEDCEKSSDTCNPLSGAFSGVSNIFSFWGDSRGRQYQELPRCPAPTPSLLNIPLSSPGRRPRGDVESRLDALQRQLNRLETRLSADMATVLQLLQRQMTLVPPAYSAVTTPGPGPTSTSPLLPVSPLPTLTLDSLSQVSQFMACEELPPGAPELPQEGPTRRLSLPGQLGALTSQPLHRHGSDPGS", "experiment": "primary screen, population patch clamp on CHO cells stably expressing hERG", "units": {"hERG current change (%, negative = inhibition) at 10uM": "%"}, "values": [{"smiles": "COc1ccc(C2C3=C(CCCC3=O)Nc3nc(C(F)(F)F)nn32)c(OC)c1OC", "note": "(stereo not drawn)", "hERG current change (%, negative = inhibition) at 10uM": -2.33}, {"smiles": "CC(NC(=O)COc1ccccc1)C(=O)N1CCN(c2ccccc2)CC1", "note": "(stereo not drawn)", "hERG current change (%, negative = inhibition) at 10uM": -20.7}, {"smiles": "O=C(O)c1ccc2c(=O)n3c(nc2c1)/C(=C/c1cccc(Cl)c1Cl)CCCC3", "hERG current change (%, negative = inhibition) at 10uM": 13.3}, {"smiles": "CCOc1ccc(C(=O)NNC(=O)CCNC(=O)c2ccco2)cc1OC", "hERG current change (%, negative = inhibition) at 10uM": 12.9}, {"smiles": "CCCCn1c(N)c(N(CC)C(=O)c2ccc(N3CCCC3=O)cc2)c(=O)[nH]c1=O", "hERG current change (%, negative = inhibition) at 10uM": 7.65}, {"smiles": "Cc1cc(N2C(=O)c3ccc(C(=O)Nc4ccccc4O)cc3C2=O)no1", "hERG current change (%, negative = inhibition) at 10uM": 14.1}, {"smiles": "O=C(Nc1ccc(O)c2c(=O)cc(-c3ccccc3Cl)oc12)c1ccccc1Cl", "hERG current change (%, negative = inhibition) at 10uM": -0.578}, {"smiles": "CCN1C(=O)/C(=C/N2CC(C)CC(C)C2)SC1=S", "note": "(stereo not drawn)", "hERG current change (%, negative = inhibition) at 10uM": -4.81}, {"smiles": "CCCn1c(N2CCN(C(=O)NCc3ccccc3)CC2)nc2ccccc21", "hERG current change (%, negative = inhibition) at 10uM": -67.9}, {"smiles": "CCN(CC(=O)Nc1ccc(NC(C)=O)cc1)C(=O)c1cc2ccccc2oc1=O", "hERG current change (%, negative = inhibition) at 10uM": 9.72}, {"smiles": "CC(Oc1ccccc1)C(=O)Nc1ccc(S(=O)(=O)N2CCN(C)CC2)cc1", "note": "(stereo not drawn)", "hERG current change (%, negative = inhibition) at 10uM": -0.932}, {"smiles": "Cc1cnc(C(=O)Nc2cc(F)ccc2C)cn1", "hERG current change (%, negative = inhibition) at 10uM": 25.5}, {"smiles": "O=C(COC(=O)Cc1c(Cl)cccc1Cl)Nc1ccc(OC(F)(F)F)cc1", "hERG current change (%, negative = inhibition) at 10uM": -6.15}, {"smiles": "O=S(=O)(NC(=NC1CCCCC1)c1ccccc1)c1ccc(F)cc1", "hERG current change (%, negative = inhibition) at 10uM": -13.1}, {"smiles": "COc1cccc(OCC(=O)NC2CCCCCC2)c1", "hERG current change (%, negative = inhibition) at 10uM": -4.24}, {"smiles": "COc1ccc2[nH]c3c(NCCCN4CCCC4=O)ncnc3c2c1", "hERG current change (%, negative = inhibition) at 10uM": -14.6}, {"smiles": "CC1CC(=O)N(CC(=O)NCc2ccc3c(c2)OCO3)c2ccccc2S1", "note": "(stereo not drawn)", "hERG current change (%, negative = inhibition) at 10uM": -7.68}, {"smiles": "O=C(NCc1cccs1)c1cc(-c2ccccc2)nc2ccccc12", "hERG current change (%, negative = inhibition) at 10uM": -27.4}, {"smiles": "CCOc1cccc(CNn2cnnc2)c1OCc1ccccc1", "hERG current change (%, negative = inhibition) at 10uM": -20.2}, {"smiles": "O=C(O)c1cc(NCc2cccs2)ccc1N1CCOCC1", "hERG current change (%, negative = inhibition) at 10uM": -6.75}, {"smiles": "CC(=O)N(C)c1ccc(NC(=O)c2ccco2)cc1", "hERG current change (%, negative = inhibition) at 10uM": 7.79}, {"smiles": "CCOC(=O)C1=C(C)N(C)C(C)=C(C(=O)OCC)C1c1cccnc1", "hERG current change (%, negative = inhibition) at 10uM": 6.97}, {"smiles": "Cc1ccc(CSc2nnc(-c3ccc(NS(=O)(=O)c4ccccc4)cc3)o2)cc1", "hERG current change (%, negative = inhibition) at 10uM": 11.8}, {"smiles": "O=C(CCc1nc(-c2ccccc2F)no1)Nc1ccc(Oc2ccccc2)cc1", "hERG current change (%, negative = inhibition) at 10uM": 12.7}]}]}
